# Reference: paper PMC4336329 (PLoS ONE, 2015)
# Out of some 310,000 compounds screened, about 2,200 (0.71%) showed an effect of 50% or more. The effect is printed as a negative number. The list shows a part of the results.
# Target: human ether-à-go-go-related gene (hERG) potassium channel (human, UniProt Q12809)
# Test: primary screen, population patch clamp on CHO cells stably expressing hERG
# human ether-à-go-go-related gene (hERG) potassium channel, sequence (Q12809 whole entry, looked up): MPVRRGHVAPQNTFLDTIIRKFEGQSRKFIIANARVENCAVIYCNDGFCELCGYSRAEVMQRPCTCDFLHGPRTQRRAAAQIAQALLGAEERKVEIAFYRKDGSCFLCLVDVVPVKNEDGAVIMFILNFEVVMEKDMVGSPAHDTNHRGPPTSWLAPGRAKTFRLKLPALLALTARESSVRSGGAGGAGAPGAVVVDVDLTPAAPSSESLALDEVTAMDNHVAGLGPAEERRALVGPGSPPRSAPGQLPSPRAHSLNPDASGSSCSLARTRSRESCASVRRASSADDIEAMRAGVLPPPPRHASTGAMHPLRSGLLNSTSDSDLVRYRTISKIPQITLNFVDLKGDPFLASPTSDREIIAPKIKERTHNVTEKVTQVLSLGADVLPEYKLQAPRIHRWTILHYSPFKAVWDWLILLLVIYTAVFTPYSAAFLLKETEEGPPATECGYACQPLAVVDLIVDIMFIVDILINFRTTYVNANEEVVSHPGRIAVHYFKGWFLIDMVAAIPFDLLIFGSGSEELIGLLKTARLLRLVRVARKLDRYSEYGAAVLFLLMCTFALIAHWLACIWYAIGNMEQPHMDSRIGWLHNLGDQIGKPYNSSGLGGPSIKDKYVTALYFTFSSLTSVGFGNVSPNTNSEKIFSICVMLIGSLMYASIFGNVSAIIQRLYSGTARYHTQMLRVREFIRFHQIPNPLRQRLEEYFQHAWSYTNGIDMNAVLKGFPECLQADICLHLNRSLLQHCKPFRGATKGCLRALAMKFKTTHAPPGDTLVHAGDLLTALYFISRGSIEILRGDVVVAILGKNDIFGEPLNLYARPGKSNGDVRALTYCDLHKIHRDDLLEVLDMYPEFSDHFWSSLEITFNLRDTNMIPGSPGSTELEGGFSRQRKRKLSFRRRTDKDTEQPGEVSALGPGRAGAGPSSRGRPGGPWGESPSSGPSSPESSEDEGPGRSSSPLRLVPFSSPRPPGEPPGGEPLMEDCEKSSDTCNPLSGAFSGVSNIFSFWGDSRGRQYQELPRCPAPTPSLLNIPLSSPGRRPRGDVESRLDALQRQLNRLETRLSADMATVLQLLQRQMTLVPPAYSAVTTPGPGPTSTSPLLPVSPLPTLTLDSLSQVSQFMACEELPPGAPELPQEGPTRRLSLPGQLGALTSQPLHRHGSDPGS
row,SMILES,"hERG current change (%, negative = inhibition) at 1uM"
1,C#CC(C)(CC)NC(=O)Cn1nnc(-c2ccc(S(C)(=O)=O)cc2)n1 (centres unmarked),4.43%
2,CSc1ccccc1NC(=O)COc1ccc(Cl)cc1C,5.08%
3,CCCCc1nc(SCC(=O)Nc2nnc(C(C)C)s2)n[nH]1,14.1%
4,O=C(NNC(=S)NC(=O)c1ccc(Br)cc1)c1cccc([N+](=O)[O-])c1,7.73%
5,Cc1c(Cl)cnc(NC(=O)COC(=O)[C@H](C)NC(=O)c2ccccc2)c1Cl,12.3%
6,C=CCNC(=S)NNC(=O)C(CCCC)CC(C)(C)O (centres unmarked),0.767%
7,O=C(CSc1n[nH]c(-c2ccccn2)n1)Nc1ccc(Cl)cc1,10%
8,COCCCNC(=S)Nc1cc2oc3ccccc3c2cc1OC,-0.116%
9,Cc1nn(CC(O)Cn2c3c(c4ccccc42)CCN(C)C3=O)c(C)c1Br (centres unmarked),1.36%
10,C(=C\c1ccccn1)/c1ccncc1,9.6%
11,COC(=O)CSc1cc(C(F)(F)F)nc(-c2ccccn2)n1,17.4%
12,CCOC(=O)C1=C(C)NC(C)=C(C(=O)OCC)C1C(=O)OCC(=O)N1CCCCC1CC (centres unmarked),10.6%
13,CCOC(=O)c1cc(/C(C)=N/OC(=O)c2ccc(C(C)(C)C)cc2)on1,9.61%
14,COc1ccc(Nc2cc(Cl)nc(N)n2)cc1,17%
15,Cc1ccc(NC(=O)COC(=O)CCc2ccccc2)c(Cl)c1,21.2%
16,O=C(NC12CC3CC(CC(C3)C1)C2)N1CC2Cc3cccc(=O)n3C(C2)C1 (centres unmarked),14.3%
17,CC(C)(C)c1ccc(/C=C(\C#N)C(=O)NCCN2CCOCC2)cc1,2.39%
18,Cn1c(=O)cc(OCC(=O)NCCC2=CCCCC2)c2ccccc21,6.25%
19,C/C(=N\NC(=O)c1nnn(-c2nonc2N)c1-c1ccc2c(c1)OCO2)c1cccs1,6.13%
20,CCCCNC(=O)CN1C(=O)NC2(CCCc3ccccc32)C1=O (centres unmarked),5.45%
21,CCOC(=O)c1cc([N+](=O)[O-])sc1NC(=O)CC,-2.81%
22,CCOC(=O)Cn1c(=O)oc2cc(S(=O)(=O)N3CCCC(C(=O)OCC)C3)ccc21 (centres unmarked),8.15%
23,CC(NS(=O)(=O)c1ccc(F)cc1)C(c1cccs1)N1CCOCC1 (centres unmarked),11%
24,CCc1cc(C(=O)O)c(NC(=O)/C=C/c2ccc(OC)cc2)s1,19%
25,O=Cc1ccc(N2CCCCCC2)cc1,8.69%
26,O=[N+]([O-])c1cccc(Nc2c3ccccc3nc3ccccc23)c1,11.4%
